Test results reported in the supplement of paper PMC11628255, “Interference of metal ions on the bioluminescent signal of firefly, Renilla, and NanoLuc luciferases in high-throughput screening assays” (Frontiers in Chemistry, 2024).
The source gives many values for each of these; only a part stands here.

Assays:
Assay in all cases: normalised percent inhibition of luminescence (vs positive and negative controls); higher = stronger inhibition
[1] = system: NanoLuc luciferase (NLuc)
Procedure: (§1)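 Concentration-response (>=11 concentrations) of metal salts on purified FLuc, NLuc or RLuc luminescence in screening (SC) or 100 mM HEPES (H) buffer; salt pre-incubated with enzyme 10 min at RT, read 10 min after substrate. Normalised percent inhibition vs plate positive (PTC-124, isradipine, BTS) and DMSO negative controls; triplicate wells.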

[2] = system: Renilla luciferase (RLuc)
Procedure: as §1

[3] = system: firefly luciferase (FLuc); settings: screening conditions buffer
Procedure: as §1

O=[N+]([O-])[O-].O=[N+]([O-])[O-].[Zn+2] [zinc nitrate]
normalised percent inhibition [%]
Settings | [1] | [2]
metal salt concentration 0.0001 mM, 100 mM HEPES buffer | 5.22 | -31.2
metal salt concentration 0.00025 mM, 100 mM HEPES buffer | -3.82 | -43.5
metal salt concentration 0.0005 mM, 100 mM HEPES buffer | 4.57 | -52.2
metal salt concentration 0.0005 mM, screening conditions buffer | -1.22 | -0.0338
metal salt concentration 0.001 mM, 100 mM HEPES buffer | 2.29 | -48.7
metal salt concentration 0.001 mM, screening conditions buffer | 3.62 | 4.3
metal salt concentration 0.025 mM, 100 mM HEPES buffer | 12.8 | -29.3
metal salt concentration 0.025 mM, screening conditions buffer | 9.18 | -1.98
metal salt concentration 0.05 mM, 100 mM HEPES buffer | 35.8 | -19.3
metal salt concentration 0.1 mM, 100 mM HEPES buffer | 47 | -10.8
metal salt concentration 0.5 mM, 100 mM HEPES buffer | 64.7 | 82.9
metal salt concentration 1 mM, 100 mM HEPES buffer | 77.1 | 97.4
metal salt concentration 2.5 mM, 100 mM HEPES buffer | 85 | 103
metal salt concentration 5 mM, 100 mM HEPES buffer | 87 | 106
metal salt concentration 10 mM, 100 mM HEPES buffer | 89.1 | –
metal salt concentration 10 mM, screening conditions buffer | 101.8 | 106.7
metal salt concentration 20 mM, 100 mM HEPES buffer | 94.98 | –
metal salt concentration 20 mM, screening conditions buffer | 104.2 | 106.2

O=[N+]([O-])[O-].O=[N+]([O-])[O-].[Cd+2] [cadmium nitrate]
[3]
Settings | normalised percent inhibition [%]
metal salt concentration 0.002 mM | -9.3
metal salt concentration 0.005 mM | -6.36
metal salt concentration 0.01 mM | -10.6
metal salt concentration 0.02 mM | -4.86
metal salt concentration 0.05 mM | -7.32
metal salt concentration 0.1 mM | -4.76
metal salt concentration 0.2 mM | -1.48
metal salt concentration 0.5 mM | 20.6
metal salt concentration 1 mM | 100.5
metal salt concentration 2.5 mM | 100.93
metal salt concentration 5 mM | 100.9

O=[N+]([O-])[O-].[Ag+] [silver nitrate]
normalised percent inhibition [%], [1]
Settings | metal salt concentration 0.0001 mM | metal salt concentration 0.00025 mM | metal salt concentration 0.0005 mM | metal salt concentration 0.001 mM | metal salt concentration 0.01 mM | metal salt concentration 0.02 mM | metal salt concentration 0.04 mM
100 mM HEPES buffer | – | – | – | – | -0.536 | -2.95 | -5.96
screening conditions buffer | -0.166 | 3 | 1.61 | 2.52 | – | – | 102

[3]
Settings | normalised percent inhibition [%]
metal salt concentration 0.1 mM | 100.9
metal salt concentration 0.2 mM | 100.6
metal salt concentration 0.5 mM | 100.7
metal salt concentration 1 mM | 100.7
metal salt concentration 2.5 mM | 100.93
metal salt concentration 5 mM | 100.5

O=[N+]([O-])[O-].O=[N+]([O-])[O-].O=[N+]([O-])[O-].[Ga+3] [gallium(III) nitrate]
normalised percent inhibition [%]
Settings | [1] | [2]
metal salt concentration 0.0001 mM, 100 mM HEPES buffer | 0.704 | -45.6
metal salt concentration 0.00025 mM, 100 mM HEPES buffer | -0.623 | -52
metal salt concentration 0.0005 mM, 100 mM HEPES buffer | -1.16 | -52.7
metal salt concentration 0.000625 mM, screening conditions buffer | 0.95 | 9.82
metal salt concentration 0.001 mM, 100 mM HEPES buffer | -2.73 | -72.7
metal salt concentration 0.00125 mM, screening conditions buffer | -4.95 | 5.38
metal salt concentration 0.025 mM, 100 mM HEPES buffer | -1.97 | -44.1
metal salt concentration 0.03125 mM, screening conditions buffer | -2.02 | 0.0744
metal salt concentration 0.05 mM, 100 mM HEPES buffer | 0.437 | -42.1
metal salt concentration 0.0625 mM, screening conditions buffer | 3.88 | -9.13
metal salt concentration 0.1 mM, 100 mM HEPES buffer | 0.526 | -9.12
metal salt concentration 0.125 mM, screening conditions buffer | 1.49 | 2.67
metal salt concentration 0.5 mM, 100 mM HEPES buffer | 3.88 | 27.9
metal salt concentration 0.625 mM, screening conditions buffer | 12.1 | -12.6
metal salt concentration 1 mM, 100 mM HEPES buffer | 11.4 | 83.8
metal salt concentration 1.25 mM, screening conditions buffer | 11.8 | 0.399
metal salt concentration 2.5 mM, 100 mM HEPES buffer | 61.7 | 96.6
metal salt concentration 5 mM, 100 mM HEPES buffer | 92 | 105
metal salt concentration 7.5 mM, screening conditions buffer | 105.5 | 92.2
metal salt concentration 15 mM, screening conditions buffer | 105.8 | 106.7

[3]
Settings | normalised percent inhibition [%]
metal salt concentration 0.002 mM | -2.69
metal salt concentration 0.005 mM | 37
metal salt concentration 0.01 mM | 50.1
metal salt concentration 0.02 mM | 99.3
metal salt concentration 0.05 mM | 85.2
metal salt concentration 0.1 mM | 97.6
metal salt concentration 0.2 mM | 100.2
metal salt concentration 0.5 mM | 100.5
metal salt concentration 1 mM | 100.4
metal salt concentration 2.5 mM | 100.7
metal salt concentration 5 mM | 100.1

O=[N+]([O-])[O-].O=[N+]([O-])[O-].[Pb+2] [lead(II) nitrate]
normalised percent inhibition [%], 100 mM HEPES buffer
Settings | [1] | [2]
metal salt concentration 0.0001 mM | 0.467 | -54.8
metal salt concentration 0.00025 mM | 1.23 | -83.6
metal salt concentration 0.0005 mM | 1.85 | -40.9
metal salt concentration 0.000625 mM | – | -8.09
metal salt concentration 0.001 mM | 1.09 | -62.2
metal salt concentration 0.00125 mM | – | 0.57
metal salt concentration 0.025 mM | 0.341 | -44.8
metal salt concentration 0.03125 mM | – | 7.41
metal salt concentration 0.05 mM | -1.3 | -31.5
metal salt concentration 0.0625 mM | – | 20.2
metal salt concentration 0.1 mM | 2.71 | -33.8
metal salt concentration 0.125 mM | – | 4.22
metal salt concentration 0.5 mM | 42.8 | 55.1
metal salt concentration 0.625 mM | – | 71.7
metal salt concentration 1 mM | 78.5 | 61.9
metal salt concentration 1.25 mM | – | 73
metal salt concentration 2.5 mM | 92.15 | 71.3
metal salt concentration 5 mM | 94.75 | 72.1
metal salt concentration 10 mM | – | 101
metal salt concentration 20 mM | – | 108

[3]
Settings | normalised percent inhibition [%]
metal salt concentration 0.002 mM | -2.87
metal salt concentration 0.005 mM | -1.41
metal salt concentration 0.01 mM | 4.91
metal salt concentration 0.02 mM | 18.4
metal salt concentration 0.05 mM | 16.3
metal salt concentration 0.1 mM | 20.2
metal salt concentration 0.2 mM | 15.8
metal salt concentration 0.5 mM | 13.7
metal salt concentration 1 mM | 92.8
metal salt concentration 2.5 mM | 99.3
metal salt concentration 5 mM | 99.7

O=[N+]([O-])[O-].O=[N+]([O-])[O-].[Cu+2] [copper(II) nitrate]
[2], 100 mM HEPES buffer
Settings | normalised percent inhibition [%]
metal salt concentration 1 mM | 107
metal salt concentration 2.5 mM | 107
metal salt concentration 5 mM | 106

[3]
Settings | normalised percent inhibition [%]
metal salt concentration 0.002 mM | 15.6
metal salt concentration 0.005 mM | 13.8
metal salt concentration 0.01 mM | 26
metal salt concentration 0.02 mM | 24.1
metal salt concentration 0.05 mM | 16.2
metal salt concentration 0.1 mM | 31.6
metal salt concentration 0.2 mM | 98.3
metal salt concentration 0.5 mM | 100.6
metal salt concentration 1 mM | 100.6
metal salt concentration 2.5 mM | 100.7
metal salt concentration 5 mM | 100.9
